This is one part of the list.
Legend:
Experiment in all cases: glycan array binding signal (z-score within array); higher = stronger binding
Details in all cases: glycan notation: IUPAC condensed, linker removed
[1] = target: Fuc(a1-2)Gal(b1-4)GlcNAc(b1-2)[Fuc(a1-2)Gal(b1-4)GlcNAc(b1-4)]Man(a1-3)[Fuc(a1-2)Gal(b1-4)GlcNAc(b1-2)Man(a1-6)]Man(b1-4)GlcNAc(b1-4)GlcNAc
How it was run: (§1)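 From the Consortium for Functional Glycomics database, 3228 arrays were curated, keeping only those whose protein sequence was available. Binding is given as a within-array Z-score averaged across arrays sharing a protein sequence and across linkers. Negative Z-scores can be read as non-binding.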

[2] = target: Fuc(a1-2)Gal(b1-4)GlcNAc(b1-3)Gal(b1-4)GlcNAc
How it was run: as §1

[3] = target: Fuc(a1-2)Gal(b1-4)GlcNAc(b1-3)Gal(b1-4)GlcNAc(b1-2)Man(a1-3)[Fuc(a1-2)Gal(b1-4)GlcNAc(b1-3)Gal(b1-4)GlcNAc(b1-2)Man(a1-6)]Man(b1-4)GlcNAc(b1-4)GlcNAc
How it was run: as §1

[4] = target: Fuc(a1-2)Gal(b1-4)GlcNAc(b1-3)Gal(b1-4)GlcNAc(b1-3)Gal(b1-4)GlcNAc
How it was run: as §1

[5] = target: Fuc(a1-2)Gal(b1-4)GlcNAc(b1-3)GalNAc
How it was run: as §1

[6] = target: Fuc(a1-2)Gal(b1-4)GlcNAc(b1-3)[Fuc(a1-2)Gal(b1-4)GlcNAc(b1-6)]GalNAc
How it was run: as §1

[7] = target: Fuc(a1-2)Gal(b1-4)GlcNAc(b1-3)[Fuc(a1-3)[Gal(b1-4)]GlcNAc(b1-6)]Gal(b1-4)Glc
How it was run: as §1

[8] = target: Fuc(a1-2)Gal(b1-4)GlcNAc(b1-6)GalNAc
How it was run: as §1

[9] = target: Fuc(a1-2)Gal(b1-4)GlcNAc6S
How it was run: as §1

[10] = target: Fuc(a1-2)Gal(b1-4)[Fuc(a1-3)]GlcNAc
How it was run: as §1

[11] = target: Fuc(a1-2)Gal(b1-4)[Fuc(a1-3)]GlcNAc(b1-2)Man(a1-3)[Fuc(a1-2)Gal(b1-4)[Fuc(a1-3)]GlcNAc(b1-2)Man(a1-6)]Man(b1-4)GlcNAc(b1-4)GlcNAc
How it was run: as §1

[12] = target: Fuc(a1-2)Gal(b1-4)[Fuc(a1-3)]GlcNAc(b1-2)Man(a1-3)[Fuc(a1-2)Gal(b1-4)[Fuc(a1-3)]GlcNAc(b1-2)Man(a1-6)]Man(b1-4)GlcNAc(b1-4)[Fuc(a1-6)]GlcNAc
How it was run: as §1

[13] = target: Fuc(a1-2)Gal(b1-4)[Fuc(a1-3)]GlcNAc(b1-2)[Fuc(a1-2)Gal(b1-4)[Fuc(a1-3)]GlcNAc(b1-4)]Man(a1-3)[Fuc(a1-2)Gal(b1-4)[Fuc(a1-3)]GlcNAc(b1-2)Man(a1-6)]Man(b1-4)GlcNAc(b1-4)GlcNAc
How it was run: as §1

[14] = target: Fuc(a1-2)Gal(b1-4)[Fuc(a1-3)]GlcNAc(b1-3)Gal(b1-4)[Fuc(a1-3)]GlcNAc
How it was run: as §1

[15] = target: Fuc(a1-2)Gal(b1-4)[Fuc(a1-3)]GlcNAc(b1-3)Gal(b1-4)[Fuc(a1-3)]GlcNAc(b1-3)Gal(b1-4)[Fuc(a1-3)]GlcNAc
How it was run: as §1

[16] = target: Fuc(a1-2)Gal(b1-4)[Fuc(a1-3)]GlcNAc(b1-3)GalNAc
How it was run: as §1

[17] = target: Fuc(a1-2)Gal(b1-4)[Fuc(a1-3)]GlcNAc(b1-3)[Neu5Ac(a2-6)Gal(b1-4)GlcNAc(b1-6)]Gal(b1-4)Glc
How it was run: as §1

[18] = target: Fuc(a1-2)Gal3S(b1-4)GlcNAc
How it was run: as §1

[19] = target: Fuc(a1-2)Gal6S(b1-3)GlcNAc
How it was run: as §1

[20] = target: Fuc(a1-2)Gal6S(b1-3)GlcNAc6S
How it was run: as §1

Fuc(a1-2)Gal6S(b1-4)Glc = target: Fuc(a1-2)Gal6S(b1-4)Glc
How it was run: as §1

[21] = target: Fuc(a1-2)Gal6S(b1-4)Glc6S
How it was run: as §1

[22] = target: Fuc(a1-2)Gal6S(b1-4)GlcNAc
How it was run: as §1

Fuc(a1-2)[Gal(a1-3)]Gal = target: Fuc(a1-2)[Gal(a1-3)]Gal
How it was run: as §1

[23] = target: Fuc(a1-2)[Gal(a1-3)]Gal(b1-3)GalNAc
How it was run: as §1

[24] = target: Fuc(a1-2)[Gal(a1-3)]Gal(b1-3)GalNAc(b1-3)Gal(a1-4)Gal(b1-4)Glc
How it was run: as §1

[25] = target: Fuc(a1-2)[Gal(a1-3)]Gal(b1-3)GlcNAc
How it was run: as §1

[26] = target: Fuc(a1-2)[Gal(a1-3)]Gal(b1-3)GlcNAc(b1-2)Man(a1-3)[Fuc(a1-2)[Gal(a1-3)]Gal(b1-3)GlcNAc(b1-2)Man(a1-6)]Man(b1-4)GlcNAc(b1-4)GlcNAc
How it was run: as §1

[27] = target: Fuc(a1-2)[Gal(a1-3)]Gal(b1-3)GlcNAc(b1-2)Man(a1-3)[Fuc(a1-2)[Gal(a1-3)]Gal(b1-3)GlcNAc(b1-2)Man(a1-6)]Man(b1-4)GlcNAc(b1-4)[Fuc(a1-6)]GlcNAc
How it was run: as §1

[28] = target: Fuc(a1-2)[Gal(a1-3)]Gal(b1-3)GlcNAc(b1-3)GalNAc
How it was run: as §1

B1: Gal 4 (Mus musculus), P56470 (protein)
chain: MAYVPAPGYQPTYNPTLPYYQPIPGGLNVGMSVYIQGVASEHMKRFFVNFVVGQDPGSDVAFHFNPRFDGWDKVVFNTLQGGKWGSEERKRSMPFKKGAAFELVFIVLAEHYKVVVNGNPFYEYGHRLPLQMVTHLQVDGDLQLQSINFIGGQPLRPQGPPMMPPYPGPGHCHQQLNSLPTMEGPPTFNPPVPYFGRLQGGLTARRTIIIKGYVPPTGKSFAINFKVGSSGDIALHINPRMGNGTVVRNSLLNGSWGSEEKKITHNPFGPGQFFDLSIRCGLDRFKVYANGQHLFDFAHRLSAFQRVDTLEIQGDVTLSYVQI
In the case of B1, the “glycan array binding signal (z-score)” value [1] is reported as -0.182, the “glycan array binding signal (z-score)” value [2] is reported as -0.19 and the “glycan array binding signal (z-score)” value [3] is reported as -0.262. The “glycan array binding signal (z-score)” value [4] was -0.163, the “glycan array binding signal (z-score)” value [5] was -0.246 and the “glycan array binding signal (z-score)” value [6] was -0.227. The “glycan array binding signal (z-score)” value [7] was -0.334, the “glycan array binding signal (z-score)” value [8] was -0.289 and the “glycan array binding signal (z-score)” value [9] was -0.187. For the same binder, the “glycan array binding signal (z-score)” value [10] was -0.234, the “glycan array binding signal (z-score)” value [11] was -0.142 and the “glycan array binding signal (z-score)” value [12] was -0.316. The “glycan array binding signal (z-score)” value [13] was -0.202, the “glycan array binding signal (z-score)” value [14] was -0.219 and the “glycan array binding signal (z-score)” value [15] was -0.235. For the same binder, the “glycan array binding signal (z-score)” value [16] was -0.167, the “glycan array binding signal (z-score)” value [17] was -0.305 and the “glycan array binding signal (z-score)” value [18] was -0.24. The “glycan array binding signal (z-score)” value [19] was -0.29, the “glycan array binding signal (z-score)” value [20] was -0.297 and the “glycan array binding signal (z-score)” value (Fuc(a1-2)Gal6S(b1-4)Glc) was -0.216. For the same binder, the “glycan array binding signal (z-score)” value [21] was -0.211, the “glycan array binding signal (z-score)” value [22] was -0.199 and the “glycan array binding signal (z-score)” value (Fuc(a1-2)[Gal(a1-3)]Gal) was -0.209. For the same binder, the “glycan array binding signal (z-score)” value [23] was 0.665, the “glycan array binding signal (z-score)” value [24] was -0.305 and the “glycan array binding signal (z-score)” value [25] was 2.26. The “glycan array binding signal (z-score)” value [26] was 1.92, the “glycan array binding signal (z-score)” value [27] was 0.409 and the “glycan array binding signal (z-score)” value [28] was 1.
